Measured values: the supplement of paper PMC8728848
Some of the results follow.

Tests used:
Assay in all cases: glycan array binding signal (z-score within array); higher = stronger binding
Conditions in all cases: glycan notation: IUPAC condensed, linker removed
[1] = biological target: Gal(b1-4)GlcNAc(b1-3)Gal(b1-4)GlcNAc(b1-2)[Gal(b1-4)GlcNAc(b1-3)Gal(b1-4)GlcNAc(b1-6)]Man(a1-6)[Gal(b1-4)GlcNAc(b1-3)Gal(b1-4)GlcNAc(b1-2)Man(a1-3)]Man(b1-4)GlcNAc(b1-4)GlcNAc
Outline: (§1)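 The Consortium for Functional Glycomics database supplied 3228 glycan arrays, of which those lacking an available protein sequence were dropped. The binding signal, a within-array Z-score, was averaged across arrays of the same protein sequence and across linkers. Negative scores can be read as non-binding.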

[2] = biological target: Gal(b1-4)GlcNAc(b1-3)Gal(b1-4)GlcNAc(b1-2)[Gal(b1-4)GlcNAc(b1-3)Gal(b1-4)GlcNAc(b1-6)]Man(a1-6)[Gal(b1-4)GlcNAc(b1-3)Gal(b1-4)GlcNAc(b1-2)Man(a1-3)]Man(b1-4)GlcNAc(b1-4)[Fuc(a1-6)]GlcNAc
Outline: as §1

[3] = biological target: Gal(b1-4)GlcNAc(b1-3)Gal(b1-4)GlcNAc(b1-3)Gal(b1-4)GlcNAc
Outline: as §1

[4] = biological target: Gal(b1-4)GlcNAc(b1-3)Gal(b1-4)GlcNAc(b1-3)Gal(b1-4)GlcNAc(b1-2)Man(a1-3)[Gal(b1-4)GlcNAc(b1-3)Gal(b1-4)GlcNAc(b1-3)Gal(b1-4)GlcNAc(b1-2)Man(a1-6)]Man(b1-4)GlcNAc(b1-4)GlcNAc
Outline: as §1

[5] = biological target: Gal(b1-4)GlcNAc(b1-3)Gal(b1-4)GlcNAc(b1-3)Gal(b1-4)GlcNAc(b1-2)Man(a1-3)[Gal(b1-4)GlcNAc(b1-3)Gal(b1-4)GlcNAc(b1-3)Gal(b1-4)GlcNAc(b1-2)Man(a1-6)]Man(b1-4)GlcNAc(b1-4)[Fuc(a1-6)]GlcNAc
Outline: as §1

[6] = biological target: Gal(b1-4)GlcNAc(b1-3)Gal(b1-4)GlcNAc(b1-3)Gal(b1-4)GlcNAc(b1-2)[Gal(b1-4)GlcNAc(b1-3)Gal(b1-4)GlcNAc(b1-3)Gal(b1-4)GlcNAc(b1-6)]Man(a1-6)[Gal(b1-4)GlcNAc(b1-3)Gal(b1-4)GlcNAc(b1-3)Gal(b1-4)GlcNAc(b1-2)Man(a1-3)]Man(b1-4)GlcNAc(b1-4)[Fuc(a1-6)]GlcNAc
Outline: as §1

[7] = biological target: Gal(b1-4)GlcNAc(b1-3)Gal(b1-4)GlcNAc(b1-3)Gal(b1-4)GlcNAc(b1-3)Gal(b1-4)GlcNAc(b1-2)Man(a1-3)[Gal(b1-4)GlcNAc(b1-3)Gal(b1-4)GlcNAc(b1-3)Gal(b1-4)GlcNAc(b1-3)Gal(b1-4)GlcNAc(b1-2)Man(a1-6)]Man(b1-4)GlcNAc(b1-4)GlcNAc
Outline: as §1

[8] = biological target: Gal(b1-4)GlcNAc(b1-3)Gal(b1-4)GlcNAc(b1-3)Gal(b1-4)GlcNAc(b1-3)Gal(b1-4)GlcNAc(b1-2)Man(a1-3)[Gal(b1-4)GlcNAc(b1-3)Gal(b1-4)GlcNAc(b1-3)Gal(b1-4)GlcNAc(b1-3)Gal(b1-4)GlcNAc(b1-2)Man(a1-6)]Man(b1-4)GlcNAc(b1-4)[Fuc(a1-6)]GlcNAc
Outline: as §1

[9] = biological target: Gal(b1-4)GlcNAc(b1-3)Gal(b1-4)GlcNAc(b1-3)Gal(b1-4)GlcNAc(b1-3)Gal(b1-4)GlcNAc(b1-2)[Gal(b1-4)GlcNAc(b1-3)Gal(b1-4)GlcNAc(b1-3)Gal(b1-4)GlcNAc(b1-3)Gal(b1-4)GlcNAc(b1-6)]Man(a1-6)[Gal(b1-4)GlcNAc(b1-3)Gal(b1-4)GlcNAc(b1-3)Gal(b1-4)GlcNAc(b1-3)Gal(b1-4)GlcNAc(b1-2)Man(a1-3)]Man(b1-4)GlcNAc(b1-4)[Fuc(a1-6)]GlcNAc
Outline: as §1

[10] = biological target: Gal(b1-4)GlcNAc(b1-3)Gal(b1-4)GlcNAc(b1-3)Gal(b1-4)GlcNAc(b1-3)Gal(b1-4)GlcNAc(b1-3)Gal(b1-4)GlcNAc(b1-2)Man(a1-3)[Gal(b1-4)GlcNAc(b1-3)Gal(b1-4)GlcNAc(b1-3)Gal(b1-4)GlcNAc(b1-3)Gal(b1-4)GlcNAc(b1-3)Gal(b1-4)GlcNAc(b1-2)Man(a1-6)]Man(b1-4)GlcNAc(b1-4)GlcNAc
Outline: as §1

[11] = biological target: Gal(b1-4)GlcNAc(b1-3)Gal(b1-4)GlcNAc(b1-3)Gal(b1-4)GlcNAc(b1-3)Gal(b1-4)GlcNAc(b1-3)Gal(b1-4)GlcNAc(b1-2)Man(a1-3)[Gal(b1-4)GlcNAc(b1-3)Gal(b1-4)GlcNAc(b1-3)Gal(b1-4)GlcNAc(b1-3)Gal(b1-4)GlcNAc(b1-3)Gal(b1-4)GlcNAc(b1-2)Man(a1-6)]Man(b1-4)GlcNAc(b1-4)[Fuc(a1-6)]GlcNAc
Outline: as §1

[12] = biological target: Gal(b1-4)GlcNAc(b1-3)Gal(b1-4)GlcNAc(b1-3)Gal(b1-4)GlcNAc(b1-3)Gal(b1-4)GlcNAc(b1-3)Gal(b1-4)GlcNAc(b1-2)[Gal(b1-4)GlcNAc(b1-3)Gal(b1-4)GlcNAc(b1-3)Gal(b1-4)GlcNAc(b1-3)Gal(b1-4)GlcNAc(b1-3)Gal(b1-4)GlcNAc(b1-6)]Man(a1-6)[Gal(b1-4)GlcNAc(b1-3)Gal(b1-4)GlcNAc(b1-3)Gal(b1-4)GlcNAc(b1-3)Gal(b1-4)GlcNAc(b1-3)Gal(b1-4)GlcNAc(b1-2)Man(a1-3)]Man(b1-4)GlcNAc(b1-4)[Fuc(a1-6)]GlcNAc
Outline: as §1

[13] = biological target: Gal(b1-4)GlcNAc(b1-3)Gal(b1-4)GlcNAc(b1-3)Gal(b1-4)GlcNAc(b1-3)Gal(b1-4)GlcNAc(b1-3)Gal(b1-4)GlcNAc(b1-3)Gal(b1-4)GlcNAc(b1-2)Man(a1-3)[Gal(b1-4)GlcNAc(b1-3)Gal(b1-4)GlcNAc(b1-3)Gal(b1-4)GlcNAc(b1-3)Gal(b1-4)GlcNAc(b1-3)Gal(b1-4)GlcNAc(b1-3)Gal(b1-4)GlcNAc(b1-2)Man(a1-6)]Man(b1-4)GlcNAc(b1-4)GlcNAc
Outline: as §1

[14] = biological target: Gal(b1-4)GlcNAc(b1-3)Gal(b1-4)GlcNAc(b1-3)GalNAc
Outline: as §1

[15] = biological target: Gal(b1-4)GlcNAc(b1-3)Gal(b1-4)GlcNAc(b1-3)[Gal(b1-4)GlcNAc(b1-3)Gal(b1-4)GlcNAc(b1-6)]GalNAc
Outline: as §1

[16] = biological target: Gal(b1-4)GlcNAc(b1-3)Gal(b1-4)GlcNAc(b1-6)[Gal(b1-3)]GalNAc
Outline: as §1

[17] = biological target: Gal(b1-4)GlcNAc(b1-3)Gal(b1-4)[Fuc(a1-3)]GlcNAc(b1-3)Gal(b1-4)[Fuc(a1-3)]GlcNAc
Outline: as §1

[18] = biological target: Gal(b1-4)GlcNAc(b1-3)GalNAc
Outline: as §1

[19] = biological target: Gal(b1-4)GlcNAc(b1-3)[Fuc(a1-3)GlcNAc(b1-6)]Gal(b1-4)Glc
Outline: as §1

[20] = biological target: Gal(b1-4)GlcNAc(b1-3)[Gal(b1-4)GlcNAc(b1-6)]Gal(b1-4)GlcNAc
Outline: as §1

[21] = biological target: Gal(b1-4)GlcNAc(b1-3)[GlcNAc(b1-6)]Gal(b1-4)GlcNAc
Outline: as §1

[22] = biological target: Gal(b1-4)GlcNAc(b1-6)Gal(b1-4)GlcNAc
Outline: as §1

[23] = biological target: Gal(b1-4)GlcNAc(b1-6)GalNAc
Outline: as §1

[24] = biological target: Gal(b1-4)GlcNAc(b1-6)[Gal(b1-3)]GalNAc
Outline: as §1

[25] = biological target: Gal(b1-4)GlcNAc(b1-6)[Gal(b1-4)GlcNAc(b1-3)]GalNAc
Outline: as §1

[26] = biological target: Gal(b1-4)GlcNAc6P
Outline: as §1

[27] = biological target: Gal(b1-6)Gal
Outline: as §1

[28] = biological target: Gal3S(b1-3)GalNAc
Outline: as §1

[29] = biological target: Gal3S(b1-3)GlcNAc
Outline: as §1

[30] = biological target: Gal3S(b1-3)[Fuc(a1-4)]GlcNAc
Outline: as §1

[31] = biological target: Gal3S(b1-4)Glc
Outline: as §1

[32] = biological target: Gal3S(b1-4)Glc6S
Outline: as §1

[33] = biological target: Gal3S(b1-4)GlcNAc
Outline: as §1

[34] = biological target: Gal3S(b1-4)[Fuc(a1-3)]Glc6S
Outline: as §1

[35] = biological target: Gal3S(b1-4)[Fuc(a1-3)]GlcNAc
Outline: as §1

[36] = biological target: Gal3S(b1-4)[Fuc(a1-3)]GlcNAc6S
Outline: as §1

[37] = biological target: Gal3S4S(b1-4)GlcNAc
Outline: as §1

[38] = biological target: Gal3S6S(b1-4)GlcNAc
Outline: as §1

[39] = biological target: Gal3S6S(b1-4)GlcNAc6S
Outline: as §1

[40] = biological target: Gal4S(b1-4)GlcNAc
Outline: as §1

[41] = biological target: Gal4S6S(b1-4)GlcNAc
Outline: as §1

[42] = biological target: Gal6P(b1-4)GlcNAc
Outline: as §1

[43] = biological target: Gal6S(b1-3)GlcNAc
Outline: as §1

[44] = biological target: Gal6S(b1-3)GlcNAc6S
Outline: as §1

[45] = biological target: Gal6S(b1-4)Glc
Outline: as §1

B1: TIM1 (protein)
chain: ADGIQSVKVGGEAGPSVTLPCHYSGAVTSMCWNRGSCSLFTCQNGIVWTNGTHVTYRKDTRYKLLGDLSRRDVSLTIENTAVSDSGVYCCRVEHRGWFNDMKITVSLEIVPPHHHHHH
[1]
  glycan array binding signal (z-score): 1.76
[2]
  glycan array binding signal (z-score): 0.621
[3]
  glycan array binding signal (z-score): -0.231
[4]
  glycan array binding signal (z-score): 3.39
[5]
  glycan array binding signal (z-score): 0.165
[6]
  glycan array binding signal (z-score): 0.754
[7]
  glycan array binding signal (z-score): 0.208
[8]
  glycan array binding signal (z-score): 0.223
[9]
  glycan array binding signal (z-score): 0.21
[10]
  glycan array binding signal (z-score): 0.004
[11]
  glycan array binding signal (z-score): -0.05
[12]
  glycan array binding signal (z-score): 0.517
[13]
  glycan array binding signal (z-score): 0.132
[14]
  glycan array binding signal (z-score): 1.09
[15]
  glycan array binding signal (z-score): 2.45
[16]
  glycan array binding signal (z-score): 1.56
[17]
  glycan array binding signal (z-score): -0.141
[18]
  glycan array binding signal (z-score): -0.245
[19]
  glycan array binding signal (z-score): -0.247
[20]
  glycan array binding signal (z-score): -0.227
[21]
  glycan array binding signal (z-score): -0.243
[22]
  glycan array binding signal (z-score): -0.165
[23]
  glycan array binding signal (z-score): -0.189
[24]
  glycan array binding signal (z-score): -0.151
[25]
  glycan array binding signal (z-score): -0.201
[26]
  glycan array binding signal (z-score): -0.164
[27]
  glycan array binding signal (z-score): -0.119
[28]
  glycan array binding signal (z-score): -0.267
[29]
  glycan array binding signal (z-score): -0.171
[30]
  glycan array binding signal (z-score): -0.15
[31]
  glycan array binding signal (z-score): -0.226
[32]
  glycan array binding signal (z-score): 0.03
[33]
  glycan array binding signal (z-score): -0.14
[34]
  glycan array binding signal (z-score): 0.162
[35]
  glycan array binding signal (z-score): -0.14
[36]
  glycan array binding signal (z-score): 0.005
[37]
  glycan array binding signal (z-score): -0.039
[38]
  glycan array binding signal (z-score): -0.116
[39]
  glycan array binding signal (z-score): 0.264
[40]
  glycan array binding signal (z-score): -0.215
[41]
  glycan array binding signal (z-score): -0.147
[42]
  glycan array binding signal (z-score): -0.296
[43]
  glycan array binding signal (z-score): -0.093
[44]
  glycan array binding signal (z-score): -0.043
[45]
  glycan array binding signal (z-score): -0.076
